The values below come from PubChem BioAssay AID1851 (National Center for Advancing Translational Sciences (NCATS), 2009).

What is called AC50 is the concentration giving half of the maximal activity seen.

Several values for one entry are separate records, joined by “and”; a condition that tells them apart may be missing. Equal values may be shown once. Only a part is listed here, and it is no random draw. Records with an inconclusive call do not appear. Activity calls are given as the source filed them. Calls come from the whole dose curve; as a rule, active = well fitted curve in the direction sought with a large enough effect; inconclusive = small, poorly fitted or top-dose-only effect, or effect the other way; inactive = no such curve, though single readings can be large or run the other way.

The target in the assay is Cytochrome P450 2C9 (Homo sapiens) (UniProt P11712). Put plainly: Cytochrome panel assay with activity outcomes. To be noted: recombinant CYP, pro-luciferin dealkylation, luminescence, p450-cyp2c9; series mostly up to 57.1 µM.
Chain of UniProt P11712 (P11712 whole entry, looked up): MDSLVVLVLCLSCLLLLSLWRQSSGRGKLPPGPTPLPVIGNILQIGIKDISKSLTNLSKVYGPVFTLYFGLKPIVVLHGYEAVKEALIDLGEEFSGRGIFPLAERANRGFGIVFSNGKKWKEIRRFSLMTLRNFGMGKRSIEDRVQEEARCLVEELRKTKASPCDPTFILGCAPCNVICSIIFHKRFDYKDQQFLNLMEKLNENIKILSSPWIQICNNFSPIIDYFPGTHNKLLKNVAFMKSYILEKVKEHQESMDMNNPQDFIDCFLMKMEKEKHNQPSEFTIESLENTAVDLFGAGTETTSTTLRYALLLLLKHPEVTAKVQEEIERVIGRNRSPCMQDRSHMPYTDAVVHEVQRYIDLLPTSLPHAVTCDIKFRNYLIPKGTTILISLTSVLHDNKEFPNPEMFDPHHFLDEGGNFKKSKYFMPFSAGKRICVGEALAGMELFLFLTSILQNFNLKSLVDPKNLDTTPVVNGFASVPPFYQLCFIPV
With `CN1[C@@H]2CC[C@H]1CC(OC(=O)[C@@H](O)c1ccccc1)C2` (some centres undefined), the AC50 entry was “inactive”.

For the compound `CN1CCC[C@@H]1CCO[C@](C)(c1ccccc1)c1ccc(Cl)cc1`, the AC50 entry is “inactive”. In the case of `Clc1ccc(CS[C@@H](Cn2ccnc2)c2ccc(Cl)cc2Cl)cc1` it was active: 20 nM. Consider `CCN(Cc1ccncc1)C(=O)[C@@H](CO)c1ccccc1`, for which the AC50 was active: 3.98 µM and active: 794 nM.
